# PMC4336329 (PLoS ONE, 2015)
# Screen size: about 310,000 compounds; about 14,000 (4.5%) showed an effect of 50% or more. The effect is printed as a negative number. The list shows a part of the results.
# Target: human ether-à-go-go-related gene (hERG) potassium channel (human, UniProt Q12809)
# Test: primary screen, population patch clamp on CHO cells stably expressing hERG
# 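Further: peak tail current of the secondary pulse compared with the same well before compound.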
# human ether-à-go-go-related gene (hERG) potassium channel, sequence (Q12809 whole entry, looked up): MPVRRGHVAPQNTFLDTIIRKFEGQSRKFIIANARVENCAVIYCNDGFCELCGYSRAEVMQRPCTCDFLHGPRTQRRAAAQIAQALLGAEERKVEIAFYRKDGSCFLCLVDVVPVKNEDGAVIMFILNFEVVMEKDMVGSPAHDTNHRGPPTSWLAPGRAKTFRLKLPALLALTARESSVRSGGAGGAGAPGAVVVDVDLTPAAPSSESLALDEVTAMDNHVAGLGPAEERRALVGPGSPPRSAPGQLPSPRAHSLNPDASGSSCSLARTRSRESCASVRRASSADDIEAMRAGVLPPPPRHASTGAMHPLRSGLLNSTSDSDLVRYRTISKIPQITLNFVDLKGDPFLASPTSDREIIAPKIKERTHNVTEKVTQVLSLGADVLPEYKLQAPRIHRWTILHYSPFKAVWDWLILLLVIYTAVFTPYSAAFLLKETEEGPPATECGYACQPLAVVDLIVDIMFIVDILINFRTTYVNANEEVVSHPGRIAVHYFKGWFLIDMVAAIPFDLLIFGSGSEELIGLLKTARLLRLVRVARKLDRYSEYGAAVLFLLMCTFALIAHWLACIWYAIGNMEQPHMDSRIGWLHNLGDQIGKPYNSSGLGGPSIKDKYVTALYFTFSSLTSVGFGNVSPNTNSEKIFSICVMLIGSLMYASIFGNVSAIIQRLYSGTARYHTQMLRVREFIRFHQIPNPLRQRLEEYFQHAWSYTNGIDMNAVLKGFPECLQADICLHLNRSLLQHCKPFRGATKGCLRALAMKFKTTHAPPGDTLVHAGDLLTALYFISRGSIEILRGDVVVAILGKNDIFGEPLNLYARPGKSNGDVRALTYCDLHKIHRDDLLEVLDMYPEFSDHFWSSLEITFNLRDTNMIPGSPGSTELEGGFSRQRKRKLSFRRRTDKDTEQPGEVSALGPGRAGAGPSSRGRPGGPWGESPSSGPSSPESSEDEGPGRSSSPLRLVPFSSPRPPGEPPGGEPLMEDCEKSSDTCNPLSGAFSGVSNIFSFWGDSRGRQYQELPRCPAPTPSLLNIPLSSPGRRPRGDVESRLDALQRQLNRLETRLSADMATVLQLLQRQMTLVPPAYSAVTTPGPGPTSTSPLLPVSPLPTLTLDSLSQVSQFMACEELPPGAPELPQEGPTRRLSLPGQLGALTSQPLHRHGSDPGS
row,SMILES,"hERG current change (%, negative = inhibition) at 10uM [%]"
1,CCc1ccc(/C=C2\Oc3cc(OS(C)(=O)=O)ccc3C2=O)cc1,11.8
2,CCOC(=O)C1CCN(C(=O)CNC(=O)Cn2c(C)cc3ccccc3c2=O)CC1,6.61
3,COc1ccc(OC)c(NC(=O)CSc2nnc(N)s2)c1,12.2
4,Cc1ccc([N+](=O)[O-])cc1S(=O)(=O)N1CCCC1,7.21
5,Cc1ccc2nc(C)cc(N/N=C/c3ccc(F)cc3)c2c1,-4.02
6,O=C1C=C(c2cccc(Cl)c2O)C[C@@H](c2ccc(F)cc2)C1,-17.5
7,O=C(Nc1nc2c(F)cccc2s1)C1CC1,-8.38
8,O=C(/C=C/c1ccc(Br)o1)NCc1ccccc1,11.1
9,CSCC[C@H](NC(=O)c1nn(C)c(=O)c2ccccc12)c1nc2ccccc2[nH]1,-3.07
10,CCc1c(C)nc2c(C)cccc2c1SCCC#N,17.7
11,Cc1cc(C)c2c(=O)cc(C(=O)NCc3ccccc3)oc2c1,3.49
12,CC(=O)N1CCN(S(=O)(=O)c2c(F)cc(F)c(Cl)c2F)CC1,4.93
13,O=C(CCn1ccc([N+](=O)[O-])n1)Nc1nccs1,21.8
14,CC(=O)C1CCN(Cc2ccccc2)CC1,20.5
15,COc1ccc(Cl)cc1NC(=O)COC(=O)C1CC1,-0.403
16,O=C(NCc1ccc(Cl)cc1)C1CCC(=O)N(C2CC2)C1 (centres unmarked),-4.23
17,NC(N)=NS(=O)(=O)c1ccc(NC(=S)NC(=O)/C=C/c2ccco2)cc1,5.99
18,N#Cc1c(NC(=O)CSc2nnnn2C2CCCC2)sc2c1CCCC2,-20.9
19,O=C(COc1ccc(S(=O)(=O)NC2CCCCC2)cc1)NCc1ccccn1,-10.9
20,COC(=O)c1cn(NC(=O)c2ccc3c(c2)OCO3)c(=O)c2ccccc12,8.31
21,O=c1[nH]c2ccsc2c(=O)n1-c1ccc(F)c(Cl)c1,0.659
22,Cn1c(=O)cc(SCC(=O)Nc2cccnc2)c2ccccc21,-5.09
23,COc1ccc(N(C)S(=O)(=O)c2ccc(Cl)c(C(=O)NCCc3ccc(Cl)cc3)c2)cc1,-15.9

row,SMILES,"hERG current change (%, negative = inhibition) at 10uM [%]"
1,COc1ccc(S(=O)(=O)N2CCSC2c2ccccc2)cc1 (centres unmarked),-13.6
2,O=C(c1ccccc1)N1CCCC(C(=O)N2CCc3ccccc3C2)C1 (centres unmarked),-2
3,O=C(CN1C(=O)/C(=C\c2cccc(Cl)c2)Sc2ccccc21)NCCCN1CCOCC1,-44.8
4,Cc1ccc(C)c(NC(=S)N2CCC(NC(=O)c3ccccc3)CC2)c1,15.1
5,CC1(C)C2CCC1(CS(=O)(=O)NCc1ccc(Cl)cc1Cl)C(=O)C2 (centres unmarked),-23.4
6,S=C(c1ccc(N2CCOCC2)cc1)N1CCCCC1,17.7
7,COc1ccc(C(CNC(=O)c2cccc(S(=O)(=O)N(C)c3ccccc3)c2)N2CCCC2)cc1 (centres unmarked),-60.2
8,C[N+](C)(C)CCc1ccc(O)cc1.[I-],15.4
9,Clc1cccc(OCc2nc(-c3ccncc3)n[nH]2)c1,-15.1
10,O=C(/C=C/c1cccs1)c1ccc(NC(=O)c2ccccc2F)cc1,-7.8
11,COc1ccccc1CNCc1ccc(C)cc1.O=C(O)C(=O)O,-6.14
12,O=C1CCc2cc(S(=O)(=O)NC(Cc3ccccc3)C(=O)NC3CCCCC3)ccc2N1 (centres unmarked),2.47
13,O=C(COC(=O)c1cc(S(=O)(=O)N2CCOCC2)cs1)c1ccccc1,-0.734
14,CC(C)c1ccc(NC(=S)NN2CCN(C)CC2)cc1,-4.46
15,Cc1cc(/C=N/NC(=O)c2cccnc2)c(C)n1CC(C)C,5.33
16,CC(C)CCNC(=O)c1cn(CC(C)C)c(=O)c2c1c1ccccc1n2C,22.2
17,CN1CCOc2ccc(S(=O)(=O)NCCc3ccc(Cl)cc3)cc21,-3.9
18,COc1ccccc1OCc1ccc(C(=O)NCC2CCCO2)cc1 (centres unmarked),7.65
19,COc1cccc(NC(=S)N(CCN2CCCCC2)Cc2ccco2)c1,-43.9
20,CC(NC1CCCC1)c1ccccc1 (centres unmarked),-2.83
21,COC(=O)c1cc(OC)c(OC)cc1NC(=O)c1ccco1,2.59
22,Cc1ccc(Oc2nc3ccccc3n3cccc23)cc1,-10.1
23,COC(=O)[C@@]12CCCCN1[C@H](c1ccc(SC3CCCCC3)cc1)[C@H]1C(=O)N(C)C(=O)[C@H]12.O=C(O)C(F)(F)F,-1.98

row,SMILES,"hERG current change (%, negative = inhibition) at 10uM [%]"
1,Cc1ccsc1C(=O)N1CCN(S(=O)(=O)c2cccs2)CC1,8.87
2,CCC(=NCc1ccc2c(c1)OCO2)c1c(O)n(C)c(=O)n(C)c1=O,1.45
3,COc1cccc(/C=N/N2CCN(C3c4ccccc4-c4ccccc43)CC2)c1O,10.2
4,Cc1cccc(C(O)(C(=O)NNC(=O)CN2CCN(C)CC2)c2cccc(C)c2)c1,-3.69
5,O=C(Cc1ccc2ccccc2c1)Nc1ccccc1Br,9.63
6,COc1cc(NC(=O)c2ccc([N+](=O)[O-])o2)ccc1NC(=O)c1cccs1,-30.2
7,Cc1nc2ccc(C(C(F)(F)F)(C(F)(F)F)C(F)(F)F)cc2[nH]1,-29.7
8,CC(OC(=O)CNC(=O)c1ccc(Cl)c(Cl)c1)C(=O)N1CCOCC1 (centres unmarked),-0.57
9,CCN(CC)S(=O)(=O)c1ccc2c(c1)c(=O)c(C(=O)NCCCN(C)c1ccccc1)cn2C,-12.2
10,Cc1cc(CNC(=O)COc2ccc(F)cc2F)c2ccccc2n1,-27.8
11,COc1ccccc1CNC(=O)C(NS(=O)(=O)c1ccc2c(c1)oc(=O)n2C)C(C)C (centres unmarked),-2.23
12,COc1ccccc1N1CCN(C(=O)COc2cc(C)cc(C)c2)CC1,10.8
13,C=CCN1C(=O)c2ccc(C(=O)OCC(=O)N(C)C3CCCCC3)cc2C1=O,-4.24
14,CCC(C)NC(=O)CCc1nc2ccccc2n1-c1ccccc1 (centres unmarked),2.77
15,CCN(c1cccc(C)c1)S(=O)(=O)c1ccc2c(c1)CCN2C(C)=O,1.61
16,CN(C)C(=O)CSc1cccc2cccnc12,0.597
17,CCn1cc(C(=O)N[C@@H](CCSC)C(=O)NCCCO)c(=O)c2cc3c(cc21)OCO3,18.4
18,O=C(Nc1ccc2c(c1)OCO2)Nc1ccc(F)cc1F,21
19,Cc1cc(F)ccc1NC(=O)CCCN(C)S(=O)(=O)c1ccc(F)cc1,-5.3
20,CCC1(CCc2ccncc2)C(=O)NC(=O)NC1=O,-4.69
21,COc1ccccc1C(c1nnnn1CC1CCCO1)N1CCN(c2ccccc2)CC1 (centres unmarked),12
22,CCc1cc2cc(C)cc(C)c2nc1SCC(=O)N1CCCC1,15.4
23,O=C(CC1Sc2ncnn2C1=O)Nc1ccc(Br)cc1 (centres unmarked),2.01

row,SMILES,"hERG current change (%, negative = inhibition) at 10uM [%]"
1,COCC(=O)N1CCCC(N(C)CCc2ccc(OC)c(OC)c2)C1 (centres unmarked),8.28
2,Cc1c(C(=O)NCc2ccccn2)oc2ccccc12,8.09
3,O=C(CO/N=C/c1ccc2c(c1)OCO2)Nc1cccc(Br)c1,-3.9
4,COc1cc(OC)c(S(=O)(=O)Nc2ccccc2N2CCCCC2)cc1NC(C)=O,18.8
5,O=C1c2cccc3cccc(c23)C(=O)N1OS(=O)(=O)c1ccc(Br)cc1,24.2
6,Cc1nn(Cc2ccccc2)c(Cl)c1/C=C/C(=O)OCC(=O)N(C)C1CCS(=O)(=O)C1 (centres unmarked),-12.4
7,O=C(NCc1ccco1)c1ccccc1NS(=O)(=O)c1ccc(Br)s1,-6.34
8,C[C@H]1C(=O)N(C)CCN1Cc1cn(C)nc1-c1ccc(Oc2ccccc2)cc1,-4.92
9,O=C(CN1C(=O)c2ccccc2S1(=O)=O)c1ccc(F)c(F)c1,4.19
10,COC(=O)c1ccccc1NC(=O)c1cc(C)no1,17
11,CCC(C)[C@H](NC(=O)[C@H](Cc1ccccc1)n1c(=O)[nH]c2ccccc2c1=O)C(=O)NCC1CCC(C(=O)O)CC1 (some centres unmarked),20.4
12,O=C/C=C/c1coc2ccc3ccccc3c2c1=O,11.4
13,O=C(CSc1nc2ccccc2o1)NC1CCCC1,16.5
14,S=C(NCc1ccncc1)Nc1ccccc1,-6.19
15,Cc1ccc(C(=O)Nc2cccnc2Cl)cc1Cl,7.74
16,O=C(NNc1c2ccccc2nc2ccccc12)c1cccc(O)c1,6.93
17,NC(=O)CSc1nc2ccccc2c(=O)n1CCc1ccccc1,8.93
18,O=C(c1cccc(NS(=O)(=O)c2cccc([N+](=O)[O-])c2)c1)N1CCOCC1,24.3
19,CC(C)CNC(=O)c1cccc(NC(=O)COc2ccc([N+](=O)[O-])cc2)c1,-57.4
20,Cc1cccc(C(=O)O/N=C(\N)Cc2ccc([N+](=O)[O-])cc2)c1,-64.3
